These results are taken from article PMC4780765, “Role of Interaction and Nucleoside Diphosphate Kinase B in Regulation of the Cystic Fibrosis Transmembrane Conductance Regulator Function by cAMP-Dependent Protein Kinase A” (PLoS ONE, 2016).

For this test, the target named is T1, nucleoside diphosphate kinase B (human (endogenous in 16HBE14o-), UniProt P22392 1-152).
T1 construct: nucleoside diphosphate kinase B (NDPK-B, NM23-H2), endogenous in the human bronchial epithelial cell line 16HBE14o-; also called NDPK-B; NDPK B; source: endogenous, 16HBE14o- cells (membrane and cytosol fractions, lysates)
The experiment in a line: co-IP; CFTR or NDPK-B immunoprecipitates from 16HBE14o- membranes; cells untreated, treated with FSK (10 μM)/IBMX (100 μM) for 30 min, or with PKI (100 nM) or H-89 (1 μM) for 5 min before FSK/IBMX. Particulars: partners not purified.

T1 sequence (P22392 whole entry): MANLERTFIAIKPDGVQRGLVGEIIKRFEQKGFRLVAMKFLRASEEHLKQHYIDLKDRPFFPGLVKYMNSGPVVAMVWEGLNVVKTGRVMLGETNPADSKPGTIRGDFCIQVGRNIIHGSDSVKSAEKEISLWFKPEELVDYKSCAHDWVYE

B1: cystic fibrosis transmembrane conductance regulator (natural protein)
chain: not shown
notes: CFTR, endogenous in the wild type human bronchial epithelial cell line 16HBE14o-; band at 175 kDa; also called CFTR; ABCC7; source: endogenous, 16HBE14o- cells (membrane fraction, lysates, immunoprecipitates)
Turning to B1, the “fold increase of co-immunoprecipitation with FSK/IBMX over untreated cells” value was found to be 2 fold.
